Structures are written as SMILES. Values joined by “and” are separate entries in the source; they are usually repeats but may differ in a detail not shown here. Identical values can stand only once. In all, about 13,000 compounds were measured (“IFI”: median about 4, highest 2% from about 17 on). The list shows a part of the results.

This experiment can be described thus: GSK_TCMDC: Inhibition Frequency Index (IFI). The number of non-kinase HTS assays where a compound showed > 50 % inhibition, expressed as a percentage of the number of such assays in which the compound was tested (-0 is zero). Type of experiment: functional.
With `COC(=O)c1sccc1NC(=S)NC1CCC(CN2CCC(c3c[nH]c4ccccc34)CC2)CC1` (stereo not given), the IFI is 5.67% and 5.71%.

On to `CC(=O)Nc1ccc(CN2CCC(N(C)c3ccc(NC(=O)c4cccc(C)c4)cc3)CC2)cc1`, for which the IFI came to 8.82%. `Cc1cc2cc(CNCCc3ccccc3Br)ccc2nc1N`: the IFI amounted to 7.09%. Then `O=C(/C=C/c1cccc(F)c1)NC1CCC(CN2CCC(c3c[nH]c4ccccc34)CC2)CC1` (stereo not given), with 4.86% and 4.93%; and `CC(Cc1ccc(OCCCCOc2ccccc2)cc1)NCCCN1CCOCC1` (stereo not given), with 30.1%. As for `COC(=O)c1ccc(CC(C)NCC(O)c2cccc(C(F)(F)F)c2)cc1` (stereo not given), the figure is 0.72% and 4.35% and 2.17%.

With `CN1CC=C(c2c[nH]c3ccc(-c4ccccc4)cc23)CC1`, the IFI is -0%. Then `N#Cc1c(Cl)cccc1Oc1ccc(S(=O)(=O)N2CCC(CN3CCC(c4c[nH]c5ccccc45)CC3)CC2)cc1`, with 5.63%; and `CCCc1ccc2c(c1O)CCC(N(CCC)CCC)C2` (stereo not given), with -0%; and `S=C(Nc1ccc2c(c1)OCCO2)NC1CCC(CN2CCC(c3c[nH]c4ccccc34)CC2)CC1` (stereo not given), with 6.43% and 4.9%.

Take `CNC(=O)c1ccc2[nH]cc(C3CCN(CC4CCC(NC(=O)/C=C/c5ccccc5Cl)CC4)CC3)c2c1` (stereo not given): the IFI came to 0.75%. As for `CC(C)CNCc1ccc(-c2cccc(CN(C(=O)Nc3ccccc3)C3CCN(Cc4ccccc4)CC3)c2)cc1`, the figure is 7.75%; as for `N[C@@H](CCN1CCC(c2cccc(O)c2)CC1)Cc1ccc(F)c(F)c1`, 12.1%; as for `O=C(/C=C/c1ccc(Cl)c(Cl)c1)NCCCCCN1C2CCC1CC(c1c[nH]c3ccccc13)C2` (stereo not given), 4.9%.

Take `CC[C@H]1CN2CC[C@H]1C[C@H]2[C@H](O)c1cc(-c2cccc(C)c2)nc2ccc(OC)cc12`: the IFI is 6.12%.

Consider `NC(=O)CN1CC=C(c2c[nH]c3ccc(Br)cc23)CC1`, for which the IFI was 0.79%. Then `O=C(NCCC1CCN(CCc2c[nH]c3ccccc23)CC1)Nc1ccc(Cl)c(Cl)c1`, with 7.46%; and `COC(=O)c1ccc(CC(C)NCC(O)c2ccccc2Cl)cc1` (stereo not given), with 3.03%; and `O=C(/C=C/c1ccc(Cl)c(Cl)c1)NCc1ccc(CN2CCC(c3c[nH]c4ccccc34)CC2)cc1`, with 10.4%. As for `FC(F)(F)c1ccc(NC(=S)N2CCC(CN3CCC(c4c[nH]c5ccccc45)CC3)CC2)cc1`, the figure is 7.19%. In turn, `COCC(=O)N(Cc1ccccc1-c1cccc(CNCCc2ccccc2)c1)C1CCN(Cc2ccccc2)CC1` showed an IFI of 4.41%. Turning to `C=C[C@H]1CN2CC[C@H]1C[C@H]2[C@H](OS(=O)(=O)O)c1ccnc2ccccc12`, the IFI was -0%.

`NCc1cccc(-c2cccc(CN(C(=O)Nc3ccccc3)C3CCN(Cc4ccccc4)CC3)c2)c1` registered an IFI of 6.52%. Regarding `Cc1ccc(CC(C)NCC(O)c2cccc(C(F)(F)F)c2)cc1` (stereo not given), the IFI was 2.92% and 2.88%. As for `Oc1ccccc1CNCC(O)c1cc(C(F)(F)F)cc(C(F)(F)F)c1` (stereo not given), the figure is 10.1%; as for `O=C(/C=C/c1ccc(Cl)c(Cl)c1)N1CCC(CN2CCC(c3c(Br)[nH]c4ccccc34)CC2)CC1`, 4.38%; as for `O=C(/C=C/c1ccccc1O)NC1CCC(CN2CCC(c3c[nH]c4ccccc34)CC2)CC1` (stereo not given), 2.8% and 2.19%. Then `COc1cc(C(=O)NC2CCC(CN3CCC(c4c[nH]c5ccccc45)CC3)CC2)cc(Cl)n1` (stereo not given), with 2.19%. As for `O=C(/C=C/c1ccc(Cl)c(Cl)c1)NC1CCC(CN2CCC(c3c[nH]c4ccccc34)C(O)C2)CC1` (stereo not given), the figure is 9.35%. With `Cc1cc(CN2CCN(CCOC(c3ccccc3)c3ccccc3)CC2)ccc1O`, the IFI worked out at 6.34%. For `CNCCc1c(O)ccc2ccccc12`, the IFI is -0%. As for `CCCCCCC(CC)c1cc(O)c2c(c1)OC(C)(C)c1ccncc1-2` (stereo not given), the figure is 1.49%.

As for `CC[C@H]1CN2CC[C@H]1C[C@H]2[C@H](O)c1ccnc2ccc(O)cc12`, the IFI was -0%. The compound `COc1cc(CC(C)NCC(O)c2cccc(C(F)(F)F)c2)ccc1OCc1ccccc1` (stereo not given) gave an IFI of 1.45%. As for `CC[C@H]1CN2CC[C@H]1C[C@H]2[C@H](O)c1cc(/C=C/c2ccc(F)cc2)nc2ccc(OC)cc12`, the figure is 4.2%. Then `CC[C@H]1CN2CC[C@H]1C[C@@H]2[C@@H](OC(=O)c1ccc(Cl)cc1)c1ccnc2ccc(OC)cc12`, with 2.99%; and `O=C(/C=C/c1cccc(Cl)c1)NC1CCC(CN2CCC(c3c[nH]c4ccccc34)CC2)CC1` (stereo not given), with 6.52% and 5.63%; and `CC(Cc1ccc(Oc2ccccc2)cc1)NCC(O)c1cccc(C(F)(F)F)c1` (stereo not given), with 4.96%.

Compound `CC(=O)N(Cc1cccc(-c2cccc(CNCc3ccc4c(c3)OCO4)c2)c1)C1CCN(Cc2ccccc2)CC1` had an IFI of 4.51%. Then `CC(C)CNCc1cccc(-c2ccc(CN(C(=O)NC3CCCCC3)C3CCN(Cc4ccccc4)CC3)cc2)c1`, with 8.46%. `CC(Cc1ccc(OCCCCOc2ccccc2)cc1)NCCC1CCCN1C` (stereo not given): the IFI is 32.5%.

In turn, `CC(=O)N(Cc1ccccc1-c1cccc(CNCCc2ccccc2)c1)C1CCN(Cc2ccccc2)CC1` displayed an IFI of 4.51%. As for `CC[C@H]1CN2CC[C@H]1C[C@H]2[C@H](O)c1cc(-c2ccccc2F)nc2ccc(OC)cc12`, the figure is 2.76%; as for `CC[C@H]1CN2CC[C@H]1C[C@H]2[C@H](O)c1cc(Cl)nc2ccc(OC)cc12`, 0.72%. As for `Cc1cccc2[nH]cc(C3CCN(CC4CCC(NC(=O)/C=C/c5ccc(Cl)c(Cl)c5)CC4)CC3)c12` (stereo not given), the figure is 12.3%; as for `COCCNCc1ccc(-c2cccc(CN(C(=O)CCC3CCCC3)C3CCN(Cc4ccccc4)CC3)c2)cc1`, 7.86%. As for `CC(Cc1ccc(OCc2ccccc2)c(Cl)c1)NCC(O)c1cccc(C(F)(F)F)c1` (stereo not given), the figure is 4.29%. Take `COc1ccc2[nH]cc(C3=CCN(CC4CC4C(=O)c4ccccc4)CC3)c2n1` (stereo not given): the IFI turned out to be 3.42%. As for `COc1ccc(C(=O)c2ccc3[nH]cc(C4=CCN(C)CC4)c3c2)cc1`, the figure is 0.82%. In turn, `Cc1ccc(CC(C)(C)NCC(O)c2cccc(C(F)(F)F)c2)cc1` (stereo not given) gave an IFI of 6.62%. Regarding `CO/C=C(/C(=O)OC)c1ccccc1Oc1cc(Oc2ccccc2C#N)ncn1`, the IFI stood at 6.5%.

Compound `CCOc1ccc(CN(CCc2ccc3c(c2)OCO3)Cc2cc(OC)ccc2O)cc1` returned an IFI of 4.11%.

Consider `O=C(Nc1ccc(Cl)c(Cl)c1)N1CCC(CN2CCC(c3c[nH]c4ccccc34)CC2)CC1`, for which the IFI turned out to be 4.23%. Consider `CCN1CCC(N2CCC(n3c(C)nc4cc(C(F)(F)F)ccc43)CC2)CC1`, for which the IFI came to 2.38%. The compound `CCCCNC(c1ccc(Cl)cc1)C(O)c1ccc(Cl)cc1` (stereo not given) registered an IFI of 2.27%. Then `Oc1ccc(CN2CCN(CCOC(c3ccccc3)c3ccc(Cl)cc3)CC2)cc1Cl` (stereo not given), with 5%; and `Cc1nc(C)c(-c2ccc(Oc3ccc(OC(F)(F)F)cc3)cc2)c(OC(=O)N(CCNC(C)C)C(C)C)c1Br`, with 18%; and `CC(C)n1ncc2c(C(=O)Nc3ccc(C#N)c(Cl)c3)cc(C3CC3)nc21`, with 2.78%. As for `C=CCOc1ccccc1CNCC(O)c1cccc(C(F)(F)F)c1` (stereo not given), the figure is 1.56%; as for `CCN(CC)CCN1C(=O)C(O)(c2ccccc2Cl)c2c1cc(C#N)cc2C(F)(F)F` (stereo not given), 2.26%.

For `COc1cc(C=CC(=O)N2CCC(CN3CCC(c4c[nH]c5ccccc45)CC3)CC2)cc(OC)c1`, the IFI is 4.32%. Then `Cc1ccc(CC(C)NC[C@H](O)c2cccc(Cl)c2)cc1` (stereo not given in full), with 4.38% and 0.72%; and `O=[N+]([O-])c1ccc(Oc2c(Cl)cc(S(=O)(=O)NC3CCC(CN4CCC(c5c[nH]c6ccccc56)CC4)CC3)cc2Cl)c(Cl)c1` (stereo not given), with 7.09%. As for `Cn1nc(C(F)(F)F)cc1-c1ccc(C(=O)NC2CCC(CN3CCC(c4c[nH]c5ccccc45)CC3)CC2)s1` (stereo not given), the figure is 6.16%; as for `COC(=O)c1ccc(CC(C)NCC(O)c2cccc(I)c2)cc1` (stereo not given), 3.65%; as for `O=C(/C=C/c1ccc(Cl)c(Cl)c1)NC1CCC(CN2CCC(c3c[nH]c4cc(C(F)(F)F)ccc34)CC2)CC1` (stereo not given), 5.93% and -0%. As for `CC(Cc1ccc(OCCOc2ccccc2)cc1)NCC(O)c1cccc(Cl)c1` (stereo not given), the figure is 6.38%; as for `CC(C)c1ccc(C=CC(=O)NC2CCC(CN3CCC(c4c[nH]c5ccccc45)CC3)CC2)cc1` (stereo not given), 5.97%; as for `C=C[C@H]1CN2CC[C@H]1C[C@@H]2[C@@H](O)c1ccnc2ccccc12`, 0.73%. For the compound `CCOC(=O)c1c(C)n(C2CCCCCC2)c2cc(Br)c(O)cc12`, the IFI was 6.34%. As for `COc1ccc(OC)c(C=CC(=O)NC2CCC(CN3CCC(c4c[nH]c5ccccc45)CC3)CC2)c1` (stereo not given), the figure is 2.96%; as for `CCCCCc1cc(O)c2c(c1)OC(C)(C)c1ccncc1-2`, 0.75%; as for `CC[C@H]1CN2CC[C@@H]1C[C@H]2[C@H](O)c1cc(N2CCC(c3ccccc3)CC2)nc2ccc(OC)cc12`, 7.52%. Compound `CN(C)c1cccc(CCNCCc2c[nH]c3ccc(Cl)cc23)c1` gave an IFI of 10.4%. Then `C[C@H](Cc1ccc(OCCCCCCOc2ccccc2)cc1)NC[C@@H](O)c1cc(Br)no1`, with 13.5%. As for `CCCCCCCN1C2CCC1CC(CCOc1ccnc3ccc(OC)cc13)C2` (stereo not given), the figure is 4.51%. As to `CN1CC=C(c2c[nH]c3ccc(C(=O)c4nccs4)cc23)CC1`, the IFI was -0%. With `O=C(Nc1ccccc1C(F)(F)F)NC1CCC(CN2CCC(c3c[nH]c4ccccc34)CC2)CC1` (stereo not given), the IFI is 4.29% and 2.14%. As for `C=C[C@H]1CN2CC[C@H]1C[C@H]2[C@H](O)c1ccnc2ccccc12`, the figure is -0%; as for `CCc1nc(N)nc(N)c1-c1cccc(Cl)c1`, 1.5%.

In the case of `CCCc1cc(O)c2c3c(c(=O)oc2c1)CN(C)CC3`, the IFI is -0%. As for `Cc1ccc(-n2nc(C)c3c2NC(=O)CSC3c2ccsc2)cc1` (stereo not given), the figure is -0%; as for `CC(=O)Nc1ccc(OCCN(CC(C)C)c2ccc(C#N)c(C(F)(F)F)c2)c(Cl)c1`, 0.97%; as for `CCCCCc1cc(O)c2c3c(c(=O)oc2c1)CN(C)CC3`, 2.14%.

Regarding `O=C(NCc1ccccc1)c1nn(CCCN2CCC3(CC2)C(=O)NCN3c2ccccc2)cc1-c1ccc(Cl)c(Cl)c1`, the IFI was 24.3%. Regarding `COc1ccccc1CNCC(O)c1cc(C(F)(F)F)ccc1C(F)(F)F` (stereo not given), the IFI came to 0.82%. Then `O=C(/C=C/c1ccc(Cl)c(Cl)c1)N1CCC(CN2CCC(c3c[nH]c4cc(C(F)(F)F)ccc34)CC2)CC1`, with 2.14%; and `O=C1Nc2cccc3c2C1(CCCCCN1CC=C(c2c[nH]c4ccccc24)CC1)CCC3` (stereo not given), with 0.74%.

The compound `O=C(/C=C/c1ccc(Cl)c(Cl)c1)N1CCC(CN2C3CCC2CC(c2c[nH]c4ccccc24)C3)CC1` (stereo not given) displayed an IFI of 5.93%.

`CC(=O)C1(c2ccccc2)CCN(CCC2(c3ccc(Cl)c(Cl)c3)CN(C(=O)C3CCCCC3)CCO2)CC1` (stereo not given) came in with an IFI of 7.28%.
